Test results reported in the RNAGym collection of RNA variant scans (doi:10.7554/elife.90254).
The source gives no read counts; variants with many changes may rest on few reads.

B1: LINE1-mini (parent)
chain: GGCAGAGCUCAACACAGCGUGGCAAAGUGGCUGUGGCUAGACUGCC

Variants of: B1
Assay: self-cleavage, relative activity (ratio to wild type); higher = more cleavage; in vitro, sequencing; the parent is a self-cleaving ribozyme
With G1U C3A A11C C15U U43G the self-cleavage was 0.02.
G1U C3G A4U A6G U9G G35C gave a self-cleavage of 0.03.
With G1U C8U G35U the self-cleavage was 0.1.
Variant G1U G2U G27U has a self-cleavage of 0.07.
For G1U C18A G27U C31A, the self-cleavage was 0.11.
With G1U C10U G30C U34C G40U the self-cleavage was 0.01.
G1U G2C C15A U38G showed a self-cleavage of 0.04.
With G1U C31U C37A the self-cleavage was 0.31.
G1U C10G G21U C45A showed a self-cleavage of 0.01.
G1U C15U G27A U28C gave a self-cleavage of 0.04.
Variant G1U C15U U43C C46G has a self-cleavage of 0.01.
Work on G1U C8A C23A C45A C46G yielded a self-cleavage of 0.1.
Work on G1U G5A G7A G30C C31G G33C yielded a self-cleavage of 0.05.
G1U G2C C13U A16G gave a self-cleavage of 0.08.
For G1U A26U G36A, the self-cleavage was 0.15.
With G1U A24C U32C C37A the self-cleavage was 0.07.
In the case of G1U G2U C3U A12G, the self-cleavage is reported as 0.05.
Variant G1U C13U A14C G36U C42G has a self-cleavage of 0.06.
G1U C3G A14G G22C G44C showed a self-cleavage of 0.14.
In the case of G1U G2A U9C G17C G21C U32G, the self-cleavage is reported as 0.01.
For G1U C15G C18U G29U, the self-cleavage was 0.01.
Work on G1U G2A C10U G21A A41G yielded a self-cleavage of 0.03.
Work on G1U C10U G17C C23U C31U C45U yielded a self-cleavage of 0.02.
With G1U C23U G35C A41U the self-cleavage was 0.09.
In the case of G1U G5U C15A C18A, the self-cleavage is reported as 0.03.
G1U C3U G40A gave a self-cleavage of 0.18.
G1U C10U A24C gave a self-cleavage of 0.13.
Work on G1U C13G A16U A24U yielded a self-cleavage of 0.04.
Variant G1U C15G G21A G30U has a self-cleavage of 0.01.
Variant G1U C15A A39U C42A has a self-cleavage of 0.
In the case of G1U C13A G21U U34G, the self-cleavage is reported as 0.02.
Work on G1U C8A U9G A11C C15A C46A yielded a self-cleavage of 0.01.
In the case of G1U C3U A16C C37A, the self-cleavage is reported as 0.11.
With G1U C10A C15U A16G A26G the self-cleavage was 0.01.
G1U A25C G35U gave a self-cleavage of 0.02.
In the case of G1U C18A G35U G36A, the self-cleavage is reported as 0.04.
For G1U C15U U20A G30U C31U G40C, the self-cleavage was 0.02.
Work on G1U A16C G40C yielded a self-cleavage of 0.03.
G1U C10A A11G U32G showed a self-cleavage of 0.02.
In the case of G1U C8U C10G C13G A24C A39U, the self-cleavage is reported as 0.
G1U C13A A25C showed a self-cleavage of 0.02.
With G1U G2C A6C C10A A12C A14C G33C the self-cleavage was 0.01.
Work on G1U G5A G19C G29A C45A yielded a self-cleavage of 0.07.
Work on G1U C3G A11G yielded a self-cleavage of 0.11.
For G1U G2C A11G A12U U38G A41U, the self-cleavage was 0.02.
For G1U C23U A25G, the self-cleavage was 0.09.
Work on G1U C3G A14G yielded a self-cleavage of 0.25.
Work on G1U C8G C10A G17U A26C C31U C46U yielded a self-cleavage of 0.01.
For G1U G5U G17U U34C, the self-cleavage was 0.08.
G1U C3A A24G A26G C46A gave a self-cleavage of 0.86.
With G1U G5U C37U C45U the self-cleavage was 0.07.
Work on G1U C13A A25C A41C yielded a self-cleavage of 0.03.
Variant G1U A16U A25U G40A C45A has a self-cleavage of 0.01.
Work on G1U G5C C18G U20C G22C yielded a self-cleavage of 0.
In the case of G1U A14U G22C G27C G30U, the self-cleavage is reported as 0.21.
Variant G1U G2A A11C C18A G29U C45U C46A has a self-cleavage of 0.01.
In the case of G1U C23A A39U, the self-cleavage is reported as 0.46.
Work on G1U C13A G27C yielded a self-cleavage of 0.
With G1U A26U A41U the self-cleavage was 0.37.
G1U G5C G7A A12C U28G U34G G36A G40A G44U showed a self-cleavage of 0.
G1U C8A G27U G35A gave a self-cleavage of 0.03.
G1U C3G C18U showed a self-cleavage of 0.03.
In the case of G1U C8G G27U C42A, the self-cleavage is reported as 0.01.
G1U G2C C18A G21U G40A gave a self-cleavage of 0.01.
With G1U C8A U32G C42U the self-cleavage was 0.02.
Work on G1U C23A U32G U38A yielded a self-cleavage of 0.04.
G1U C8G G21A showed a self-cleavage of 0.23.
Work on G1U C8G U20G U43G yielded a self-cleavage of 0.02.
In the case of G1U G5U C15A G33A C37A, the self-cleavage is reported as 0.06.
G1U C10A C18U gave a self-cleavage of 0.01.
Variant G1U G2U C15G G29A U38C C42U C45U has a self-cleavage of 0.
With G1U C15U G21A C46G the self-cleavage was 0.8.
Work on G1U C3A G40U yielded a self-cleavage of 0.08.
In the case of G1U C3G G17U U28A C31G G36C, the self-cleavage is reported as 0.05.
G1U G2A A11C showed a self-cleavage of 0.02.
Variant G1U C10A G19A A25C C37G has a self-cleavage of 0.
For G1U G5A A24U G30U U34A, the self-cleavage was 0.01.
With G1U G5A C15A the self-cleavage was 0.14.
For G1U G5U C10A C15U, the self-cleavage was 0.02.
In the case of G1U A41G U43C, the self-cleavage is reported as 0.01.
With G1U A39U C46G the self-cleavage was 0.49.
Work on G1U G5A A39U A41G C42U U43C yielded a self-cleavage of 0.15.
G1U C3U A4C C15U A24U G40C A41U showed a self-cleavage of 0.41.
G1U A16U G35U G36C showed a self-cleavage of 0.01.
With G1U C23A C31G C37G C45G the self-cleavage was 0.
For G1U G5U G17U G19C, the self-cleavage was 0.09.
G1U C8U A16U G22C G27A G33C U34G showed a self-cleavage of 0.03.
In the case of G1U C3U C31U A39C, the self-cleavage is reported as 0.06.
G1U C23A C31U showed a self-cleavage of 0.1.
G1U C8A A11G A25G G30U gave a self-cleavage of 0.01.
G1U G2C A16C G17C gave a self-cleavage of 0.04.
Work on G1U G2C U9A yielded a self-cleavage of 0.03.
In the case of G1U C23G G33U G36U A39C G40A, the self-cleavage is reported as 0.02.
G1U G5U U9C A16G gave a self-cleavage of 0.02.
With G1U C8U G19U A26C the self-cleavage was 0.01.
In the case of G1U G7A C10U U20C G29C, the self-cleavage is reported as 0.01.
G1U A41U U43A showed a self-cleavage of 0.1.
For G1U C3U G5A A6U U9A G27U C42G, the self-cleavage was 0.07.
With G1U C10G C15G G17U G22U C23G C31U the self-cleavage was 0.01.
In the case of G1U G2C C13U U20A, the self-cleavage is reported as 0.09.
G1U C10A G44A gave a self-cleavage of 0.01.
G1U C10A G21C A26G showed a self-cleavage of 0.
In the case of G1U A16G A41C, the self-cleavage is reported as 0.02.
In the case of G1U A16G A41G, the self-cleavage is reported as 0.06.
In the case of G1U C8U A41G, the self-cleavage is reported as 0.11.
For G1U G5A A16G G35A C42A, the self-cleavage was 0.04.
With G1U C10A G19U the self-cleavage was 0.02.
Variant G1U C13G G21U A26G C42U U43C has a self-cleavage of 0.01.
With G1U C3G C46A the self-cleavage was 0.22.
With G1U C8A G22A G29A the self-cleavage was 0.05.
For G1U C3A C8U C31U C37U C42A, the self-cleavage was 0.14.
Work on G1U A25U A41U yielded a self-cleavage of 0.31.
G1U C10A C37A gave a self-cleavage of 0.04.
In the case of G1U C8A A39C U43A C45U, the self-cleavage is reported as 0.07.
G1U C3A G21U C31A C42A showed a self-cleavage of 0.33.
With G1U C3G U32C U38G G40U C45A the self-cleavage was 0.08.
In the case of G1U C3A G17A G22C C31G U32C G44U, the self-cleavage is reported as 0.1.
For G1U G2U U20A C46U, the self-cleavage was 0.09.
Variant G1U C3A A39G has a self-cleavage of 0.36.
G1U C8U C23G U38A C45A gave a self-cleavage of 0.02.
G1U G5A U32A G35U A41G gave a self-cleavage of 0.03.
Variant G1U G2A A6C G7A A11G A12G C15G U38A has a self-cleavage of 0.01.
G1U C15U C23U A24G A39U showed a self-cleavage of 0.04.
In the case of G1U C3G G5C C8U U43G C45A, the self-cleavage is reported as 1.03.
G1U C8A A12U U20A C23U G35A A39U gave a self-cleavage of 0.04.
Work on G1U C8A C46G yielded a self-cleavage of 0.1.
G1U C3A A16U G17U G40A gave a self-cleavage of 0.2.
Work on G1U C13U U34G yielded a self-cleavage of 0.08.
Work on G1U C23A C42A yielded a self-cleavage of 0.08.
Work on G1U G2C C15U A25G yielded a self-cleavage of 0.02.
Variant G1U C8G A12C G35U has a self-cleavage of 0.01.
For G1U C8G A12U C23G C31U, the self-cleavage was 0.02.
For G1U C3U A4U, the self-cleavage was 0.06.
Work on G1U C3U A4C yielded a self-cleavage of 0.11.
G1U G2C G21C showed a self-cleavage of 0.05.
G1U G2C G22U showed a self-cleavage of 0.05.
Variant G1U C15U G19A U28C G40A has a self-cleavage of 0.01.
For G1U G5A G7A C8G G22A A24G G36C C45U, the self-cleavage was 0.21.
Variant G1U C15A U34C has a self-cleavage of 0.09.
With G1U C15A A16G A39G U43A the self-cleavage was 0.11.
G1U C8U C15U A26G showed a self-cleavage of 0.1.
G1U A14U G27A A41U gave a self-cleavage of 0.02.
G1U C8U A12C G21U G22U A25C U34C G40U showed a self-cleavage of 0.
G1U C10G A12G C23G A39C U43C showed a self-cleavage of 0.
In the case of G1U G2A G29U, the self-cleavage is reported as 0.34.
In the case of G1U A14U U20C A25C, the self-cleavage is reported as 0.13.
G1U C10A C15A G30A gave a self-cleavage of 0.03.
For G1U C10A G22U G36U G44A, the self-cleavage was 0.
Work on G1U C15G A25G yielded a self-cleavage of 0.05.
Variant G1U C13A G17A has a self-cleavage of 0.09.
In the case of G1U C23U G29A C45A, the self-cleavage is reported as 0.98.
G1U C37G U43A showed a self-cleavage of 0.04.
Variant G1U C37G U43C has a self-cleavage of 0.02.
Variant G1U G5A C18A U28C G29A G30C has a self-cleavage of 0.
With G1U C18G G22A A25U the self-cleavage was 0.55.
In the case of G1U C15G U28A, the self-cleavage is reported as 0.01.
Work on G1U C3G A14U C15G C42A yielded a self-cleavage of 0.05.
Work on G1U C15G G40U yielded a self-cleavage of 0.03.
With G1U C8U A16C A24G A39U the self-cleavage was 0.02.
G1U A41U C46G showed a self-cleavage of 0.35.
With G1U C8U G17U C42G the self-cleavage was 0.11.
In the case of G1U C13A A26G C37G, the self-cleavage is reported as 0.03.
Work on G1U C3G A16U C23A C37U C42U yielded a self-cleavage of 0.07.
Variant G1U G2U A4U C31A has a self-cleavage of 0.03.
In the case of G1U C10U A16U, the self-cleavage is reported as 0.1.
In the case of G1U C37G C45A, the self-cleavage is reported as 0.01.
Work on G1U C37A U43G C46A yielded a self-cleavage of 0.04.
